Experimental data as given in the supplement of paper PMC11417369.
Some of the results follow.

Each sequence was assayed on PfAP2-HC AP2 domain (GST-tagged) (assay: gcPBM binding intensity (ln(normalized median fluorescence intensity)); higher = stronger DNA binding).
Summary of the method: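 DNA-binding domains from P. falciparum, fused to GST and produced in E. coli, were put on an Agilent 4 × 180k double-stranded probe array for 1 h in 1× PBS holding 1% milk, 0.2 mg/ml BSA, 0.5% salmon testes DNA and 0.03% Triton X-100. Probes were primer-extended, 36 bp long and drawn from intergenic genomic regions, with negative controls included. After Alexa488 anti-GST antibody detection and a 488 nm scan, binding intensity was set as the highest Masliner-normalised natural-log median intensity across replicate spots of either probe orientation.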

Sequence	gcPBM binding intensity (ln)
CATTAGGTCTTTTGTACATGCAAGTGTGTGCGTAAA [TGCATGCA_site255]	9.93
TTTTTTTTTTTTTTTGCACACTTGATTTGAGCTTAT [CACACA_site4042]	9.56
AAAATAAAAATACACATTTTTTTTTTTTTTTTTTTT [TGCATGCA_negctrl_site515]	9.54
TTTTTTTTTGTTTACACACCCAAATCACATACATAT [CACACA_site4052]	9.94
TTACAAAAATGTGGTTGTACACAAACAAAAAAAATA [XGTACX_site8506]	9.82
GAAAATAGCTAAAATACACACAATTAAAAGTTATTA [CACACA_site7614]	10.2
TATAAATAGATATATACACACATGAAAATAAATAAA [CACACA_site7228]	10.1
TTTTCCTTTTTGGAATGTACACATATATATTAAATG [XGTACX_site4700]	9.51
AAATATAATATATGCACACATACATACATATATATA [CACACA_site104]	9.84
AAGAATAATAACAAATGTACTTATATAAAGTATTAT [XGTACX_site2336]	9.74
TAATTAAATATTTTCCTACAATTAATAAGAAAAGGA [XGTACX_negctrl_site565]	9.27
TATTAAGAAGAAAATTCACACATTTGTACCTCTCTT [CACACA_site4822]	9.68
CAGCTCTTAAAAATTACACACATATACGCATATATA [CACACA_site3267]	9.83
TTCTTTAAAATAAATTGTACTAACATATATATATAT [XGTACX_site6045]	9.66
TATAATATAATATATGCACACAAATATGTATATATG [CACACA_site8664]	9.78
AACTATATATAACTAGTGCAAAGACAATATTTTAAA	9.79
AAAATTTAATATAATGCACACATAAAAAAAAAAAAT [CACACA_site8425]	9.89
CCATTTATTATTTGGGGTACATTTAATTAATATTTT [XGTACX_site5940]	9.72
CTTTATTATAAGATTACACACATGTGTTATAATTTA [CACACA_site3169]	9.79
TTGACCTTAAGAAGGTTGCACTAATCATTCAAAGTT	9.45
ATAGGCACTTTTTGCACACGTATGAATAACAAAATA [CACACA_site5069]	10
TGAAAATTTTAATGAGGAAATAAAATAAATATAATA [GTGCAC_negctrl_site159]	9.58
TTTATTAATAGACACACACACACACGCAAAATAAAA [CACACA_site6255]	11.2

Sequence	gcPBM binding intensity (ln)
CCAAAGGGGGTATACTGTACATATAGTGGTTATATA [XGTACX_site1515]	9.73
ATTTAAGGGGTGTATGCACACGACTATTCCGTATGA [CACACA_site4738]	9.94
AATATTTTAAGGCACACACACAAAAAAAAAAAAAAA [CACACA_site2890]	10.7
TAATTTAGTATCTTTACATGCGGGCATTATGTCATA [TGCATGCA_site167]	9.57
ACTTGTTTTCAATGTAAAATACAATTTTCATTTATT [CACACA_negctrl_site435]	9.7
AATGAAAAATGTATCGTTAAAGGGTATCTTAAGGAT [XGTACX_negctrl_site222]	9.7
CCAAAGAAATATAATACACACAAGAATATATTGGAT [CACACA_site6018]	9.86
AAGTATTACAACCACACACACACCTATATATTATAT [CACACA_site4158]	10.6
AATTTAATATAATGCACACATAAAAAAAAAAAAAAA [CACACA_site123]	9.74
TTTTAAACAAAAAATTGTACAATTAGTGTATAATCC [XGTACX_site778]	9.69
AAAGGAAATTAAAATTGATTACATATATAAAAAAAC [XGTACX_negctrl_site196]	9.72
TATAAAAATGTGTATGTACACACTTTATTTTTAATA [CACACA_site2532]	9.68
TATTTTTCCCTATGCACACACACCGTATATATAATA [CACACA_site4758]	10.4
AGTATTTCCATATGTACATGCAAAAGGAAAGATATA [TGCATGCA_site850]	9.7
AAATATAAAAATAGCACACATATATACATATATATA [CACACA_site56]	9.88
TGTCCAATTTTTTATCGTACATAATATATAAATAAA [XGTACX_site1705]	9.36
AGAAACGTAAGTTATACACACATGTCAAAAGAAAAA [CACACA_site312]	9.91
AAATTAAAATATATATGTACATATATATATATATAT [XGTACX_site7844]	9.62
GAGCTTTGGATGAAAGCATGCGATGAATGGATAAAA [TGCATGCA_site786]	9.47
AACACAAATAAGTATTTGGATTATATTACATTTATA [CACACA_negctrl_site465]	9.57
TAAATAGGAAAACCTATACACACTTTAAAAAAAATA [CACACA_site1621]	9.63
TAAATTAAAAAAAAAAACAAAAAAAAAGCAACAAAA [CACACA_negctrl_site1318]	9.67
ATAAAAATAAATAAATGTACATATATATATATATAT [XGTACX_site1277]	9.58

Sequence	gcPBM binding intensity (ln)
ATTTATTTCAATAAACTTCTTTTCTTTAACAATTAC [CACACA_negctrl_site1222]	9.51
CTGTAAAATGTGATGGTGCATATTAATTTAGTTGTA	9.87
TTTGAATTTTTTAACACACACATGTCTGGATATATA [CACACA_site1645]	10.1
GAAAAAAAAAAAAAAAGTACATGTCATAAATTGTAT [XGTACX_site1461]	9.82
TTTTCCTTAACACACGTTTATATAAAAAATTAAAAT [XGTACX_negctrl_site115]	9.37
ATCCATCTTTTATATAGTACTTTATAATATATATAT [XGTACX_site8064]	9.82
CAATGTTAATATAATACACACAATATGTATTTGTCT [CACACA_site1162]	9.91
TTGTTAATATATATATGTACTTATTTATTTATTTAT [XGTACX_site2274]	9.65
TTATAGTATTTATAATGTACAAATATATTTTATTTT [XGTACX_site5015]	9.62
ATATATATATTTATAGTGCATTTATATTAAAATATC [GTGCAC_site9818]	9.53
TCAAATAGAAAATAAAGTACTTAATTTTTAGGAACA [XGTACX_site1446]	9.61
TTGAATATTTAAAAACGTACATAAAATTATTTGATT [XGTACX_site5422]	9.52
ATATTTATATTTTTTTGTACATATATAATTTTATAA [XGTACX_site4151]	9.63
ATATATATTTATATATGTACATATTAATATATATAT [XGTACX_site1144]	9.53
ACATATTTATATATGTGTACATAAATATTCTTTTAA [XGTACX_site8238]	9.71
ATAAAAAAATCAGACACACACACGTAAACCCATACA [CACACA_site2773]	10.6
ATTTATTTTTTTATCACACATTTGTGAAATGTGCAT [CACACA_site5869]	9.82
ATATTAAGGTTTATATTTTAACTTATTATTTTATTC [CACACA_negctrl_site795]	9.65
AAAAAAAAAAAACACACACACACACCCATATACATA [CACACA_site2664]	11
GTAAAAAGATAATGAAGTACATTTTTTCATTTTTAT [XGTACX_site5579]	9.57
CATATCCTTACGAACTGTACAATATTAAGAATAAAA [XGTACX_site1651]	9.49
ATATATTCAATTCATACACACACAATTTAAGAATGA [CACACA_site9289]	10.2
CTAGACTTTATTAATTGTACATATGTGTATTTTATA [XGTACX_site480]	9.66

Sequence	gcPBM binding intensity (ln)
GTCTATAACTATTGCGCACACTTTAAAAAAAAAGAA [CACACA_site1003]	9.88
TAGAAGCATTGACACACACACATACATACACATACA [CACACA_site6802]	11.2
TATATATATATATAATGTACATAATAATAATACATC [XGTACX_site5587]	9.78
TTTTCCTTTACATAATGTACACAAAAAAAAAAAAAA [XGTACX_site716]	9.18
GTTACTGCATACATAACACACATATTCAAAACCCAT [CACACA_site5856]	9.81
AATACAGACAGACACACACACAAAATAAAATACAAA [CACACA_site245]	10.5
CATCATAGAGTGGAGTGTACAAATATGTCAACATAT [XGTACX_site2264]	9.75
TCTTTTTTTTGAATTTGTACATAAGACAATAAAAAA [XGTACX_site4682]	9.21
TTAACAGTAAAACACAGTACATATATACTTAAAACA [XGTACX_site1930]	9.79
ATTTTTTTCCTAATGGTGCGAATAAATATCCATACC	9.58
AAAGCTTACATATACACACATACATAAATTCATAAA [CACACA_site2469]	9.86
AAAAAAAAAAAAGGAACACACAAGTAACAATAAATT [CACACA_site2481]	10.2
TTTTTTTATTATACTAGTACATATATATACAGCACA [XGTACX_site3464]	9.6
ATACTAAAGAAACACACACACATATATATATAGAAT [CACACA_site100]	10.9
TTTACACCCTAAAAATGTACAAGAAAGATTATATTA [XGTACX_site1102]	9.47
GAGAAATGGGGACACACACACATATTATAGATATAT [CACACA_site6829]	10.4
TTGTTTGATATCTTTGTCACGAAAAAAATATATATA [GTGCAC_negctrl_site54]	9.34
TAAGGATAAAATAAATGTACATATGTAAAATTATTA [XGTACX_site4170]	9.84
TAATCTCATAAAACCGCACACACATAAAATTTGCAT [CACACA_site3890]	10.4
TTTTTAATAATCTCTCAAAATGTTCTTATATTTTAC [CACACA_negctrl_site1691]	9.58
